This passage reports displacement results from PubChem BioAssay AID1240 (Sanford-Burnham Center for Chemical Genomics, 2008).

Screen size: about 50,000 compounds; about 800 (1.6%) showed an effect of 50% or more. Some of the results follow.

This assay has as its target Bcl-2-like protein 10 (Homo sapiens) (UniProt Q9HD36). The experiment in a line: Phenotype converters, Bcl-B/TR3 peptide binding displacement, primary biochemical FP (AID 1240).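 Note: 0% = Bcl-B with tracer peptide and DMSO and 100% = tracer peptide lacking Bcl-B.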 To be noted: GST-Bcl-B / FITC-TR3 peptide fluorescence polarization; stronger effect = higher value; compound at 3.75 mg/L. (Fluorescence polarisation rises when a labelled molecule tumbles more slowly, as on binding a larger partner.)
UniProt Q9HD36, sequence (Q9HD36 whole entry, looked up): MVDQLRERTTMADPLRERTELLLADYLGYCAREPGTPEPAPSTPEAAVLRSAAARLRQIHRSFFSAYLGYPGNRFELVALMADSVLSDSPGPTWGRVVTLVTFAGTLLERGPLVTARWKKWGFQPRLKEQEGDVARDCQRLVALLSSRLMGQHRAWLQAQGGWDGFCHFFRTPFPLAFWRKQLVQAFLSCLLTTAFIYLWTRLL
For `Cc1cc(Cl)ccc1OCC(=O)Nc1ccccc1[N+](=O)[O-]`, the displacement was -14%.

As to `COC(=O)CC(C(=O)OC)C(C(=O)OC)C(=O)OC` (configuration not stated), the displacement worked out at 11.3%.

Turning to `O=C1/C(=C/c2c(Cl)cccc2Cl)SC(=S)N1CC1CCCO1` (configuration not stated), the displacement is -3%.

For `O=C1CC(c2ccc(F)cc2)c2cc(Br)c3ccccc3c2N1` (configuration not stated), the displacement is -9%.

On to `COc1cc(OC)cc(C(=O)Nc2cccc(S(N)(=O)=O)c2)c1`, for which the displacement amounted to 2%.

Take `O=C(CCC(=O)N/N=C/c1ccc(O)cc1)N/N=C\c1ccc(O)cc1`: the displacement was 0.2%.

In the case of `O=C(/C=C\c1ccccc1)Nc1ccc2c3c(cccc13)CC2`, the displacement worked out at 12.4%.

In the case of `O=C(CN1C(=O)/C(=C/c2cccc(Br)c2)SC1=S)Nc1ccc2c(c1)OCO2`, the displacement came to 11.4%.

Take `O=C(c1cc2n(n1)C(C(F)(F)F)CC(c1cccs1)N2)N1CCN(C(c2ccccc2)c2ccccc2)CC1` (configuration not stated): the displacement is 6.7%.

Take `O=C(NCC(O)c1ccccc1)c1ccc(CSc2ccc(Cl)cc2)cc1` (configuration not stated): the displacement was -14.3%.

Regarding `CC(C)(C)CC(C)(C)NC(=O)c1ccc2nccnc2c1`, the displacement came to 14.3%.

On to `C=CCOCC(O)CSCCCC` (configuration not stated), for which the displacement is -4.5%.

Consider `O=C1CCCc2c1[nH]c1ccc(Br)cc21`, for which the displacement worked out at 3.6%.

In the case of `CCN(CC)c1ccc(NC(=O)c2cncc(Br)c2)cc1`, the displacement was 84.2%.

For the molecule `CCOc1ccc(Cc2c(C)nc3c(C)cccc3c2Cl)cc1`, the displacement was -5.7%.

Turning to `COc1ccc(C2=Nc3ccc(Br)cc3C(c3ccccc3)N2CC(=O)NN)cc1` (configuration not stated), the displacement worked out at 14%.

Regarding `Cc1ccc(OCC(=O)O/N=C(\N)c2ccccn2)c(C)c1`, the displacement was -5.1%.

On to `CCCOc1cccc(NC(=O)c2ccc(C)o2)c1`, for which the displacement stood at 0.8%.

Consider `O=C(c1ccc([N+](=O)[O-])cc1)N1CCN(c2nc(-c3ccccc3)c3cc(Cl)ccc3n2)CC1`, for which the displacement was determined as 17.5%.

Consider `Cc1cc(=O)n2/c(=C\c3ccc(Br)cc3)c(=O)[nH]c2n1`, for which the displacement was -10.2%.

In the case of `C=CCc1cc(/C=C2/C(=O)NC(=O)N(c3ccc(C)cc3)C2=O)cc(OC)c1O`, the displacement was -11.8%.

As for `Cc1ccc([N+](=O)[O-])cc1NC(=O)COc1cccc(C)c1C`, the displacement worked out at 1.9%.

With `Cc1nc(SCC(=O)O)[nH]c(=O)c1Oc1ccccc1`, the displacement was -5%.

For `CC(C)OC(=O)c1c(-c2ccccc2)csc1NC(=O)C1C2CCC(C2)C1C(=O)O` (configuration not stated), the displacement was -3.8%.

Regarding `COc1ccc(/C=C2\SC(=S)N(c3cccc(Br)c3)C2=O)cc1`, the displacement was 3.9%.

As for `O=C(Nc1ccccc1)Nc1nnc(CSCc2ccccc2F)s1`, the displacement stood at 7.8%.

For `COc1ccc(-n2c(=O)c3c4c(sc3n3c(SC)nnc23)COC(C)(C)C4)cc1`, the displacement was 6.2%.

For the molecule `COc1cccc(OCCn2cc(C=C3C(=O)NC(=S)NC3=O)c3ccccc32)c1`, the displacement was found to be 36.6%.

With `Cc1ccc(C(=O)N(C(=O)c2ccc(C)c(C)c2)c2ccccn2)cc1C`, the displacement was found to be 7.1%.

On to `O=C(CNc1cccc(Br)c1)c1ccc([N+](=O)[O-])cc1`, for which the displacement came to 2.1%.

As to `CCOC(=O)c1c(NC(=O)c2cccs2)sc(C(=O)Nc2ccccc2C(F)(F)F)c1C`, the displacement is -10.1%.

For `COC(=O)CN(c1ccc(C)c(Cl)c1)S(C)(=O)=O`, the displacement was 5.5%.

Take `Nc1ccc(-c2cc(C(=O)O)c3ccccc3n2)cc1`: the displacement amounted to 21.8%.

Turning to `COC(=O)C1=C(C)N(c2ccc(F)cc2)C(=O)/C1=C\c1ccccc1O`, the displacement was 9.4%.

Turning to `Cc1cc(Cl)ccc1OCC(O)CNC(C)C` (configuration not stated), the displacement was 1.1%.

For `O=C1NC(=S)S/C1=C/c1ccc(OCc2ccc(F)cc2)c(Br)c1`, the displacement is 20.2%.

As for `CCc1cc2c(-c3ccccc3)cc(=O)oc2cc1OC(C)C(=O)O` (configuration not stated), the displacement was found to be 10.7%.

In the case of `Cc1cc(Cl)ccc1OCc1nc(-c2cccc([N+](=O)[O-])c2)no1`, the displacement was -6%.

As for `O=C1CCCN1CCCN=Cc1c(O)[nH]c(=O)[nH]c1=O`, the displacement was -13.2%.

In the case of `COc1cc(C=Nc2ccc(S(N)(=O)=O)cc2)ccc1O`, the displacement came out at 2%.

Consider `COC(C(=O)N1CCCCCC1)(c1ccccc1)c1ccccc1`, for which the displacement stood at 16.8%.

In the case of `C=CCn1c(SCC(=O)NCc2ccco2)nc2sc3c(c2c1=O)CCCC3`, the displacement was 4.4%.

Take `Oc1ccc(Br)cc1CN1CCN(Cc2cccc3ccccc23)CC1`: the displacement was 5.8%.

As to `CC(C)(C#N)NCCCCCCNC(C)(C)C#N`, the displacement amounted to 1.5%.

With `C#CCSc1nc2sc3c(c2c(=O)[nH]1)CCCC3`, the displacement is -7.5%.

As for `NC(=O)c1cccc(NC(=O)/C=C/C(=O)O)c1`, the displacement was -3.4%.

On to `CCOC(=O)c1c(-c2ccccc2)c[nH]c1C`, for which the displacement came to 4.3%.

Take `Cc1ccc(OCC(=O)Nc2ccc(O)c(-c3nc4cc(C)c(C)cc4o3)c2)cc1C`: the displacement stood at 5%.

Consider `CCOC(=O)N/N=C(\C)c1ccc(O)cc1O`, for which the displacement was -1.5%.

Turning to `NC(=O)c1cccc(N=Cc2ccc([N+](=O)[O-])cc2)c1`, the displacement was -6.6%.

Turning to `COc1ccc(C2/C(=C(\O)c3ccccc3)C(=O)C(=O)N2c2cccc(Cl)c2)cc1OC` (configuration not stated), the displacement was determined as 7%.

For `Cc1ccc(NC(=O)COc2cccc(C)c2C)c(Br)c1`, the displacement is -1.9%.

Regarding `CC(=O)Nc1ccc(C(=O)CSc2ncn(-c3ccccc3)n2)cc1`, the displacement turned out to be 14.7%.

Regarding `COc1ccc(-c2nnc(Nc3ccc(O)cc3)c3ccccc23)cc1`, the displacement was 2.4%.

Consider `CC(C)C(C(=O)O)N1C(=O)/C(=C/c2ccc(F)cc2)SC1=S` (configuration not stated), for which the displacement amounted to 3.8%.

Regarding `O=C(O)c1cc(N2C(=O)C=CC2=O)ccc1Cl`, the displacement was -0.2%.

Turning to `CC(Oc1ccccc1)C(=O)Nc1cccc(Br)c1` (configuration not stated), the displacement is 9.9%.

In the case of `O=C1N=c2ccccc2=C1c1sc(=S)[nH]c1O`, the displacement turned out to be 2.4%.

For `Cc1ccc(S(=O)(=O)Nc2cc(C)c(O)c(S(=O)(=O)c3ccc(C)cc3)c2)cc1`, the displacement is -2.2%.

For `O=C(c1cc(-c2cccc(Br)c2)nc2ccccc12)N1CCCCCC1`, the displacement was 31.8%.

`COc1ccc(C(=O)CSc2nc3ccccc3c(=O)[nH]2)cc1`: the displacement came out at 13.6%.

As to `Cc1c(C2N3CC4(C)CN2CC(C)(C3)C4=O)c2ccccc2n1C` (configuration not stated), the displacement was -2.1%.

For `Cc1ccc(/C=N/NC(=S)NC2CCS(=O)(=O)C2)cc1` (configuration not stated), the displacement was determined as 1.5%.

With `O=C1CS/C(=N/S(=O)(=O)c2ccccc2)N1`, the displacement turned out to be 5.1%.

Take `O=C(NCCN1CCN(S(=O)(=O)c2ccccc2)CC1)C(=O)Nc1ccc(Br)cc1`: the displacement worked out at 12.4%.

With `C=CCOc1ccc(/C=C2\C(=O)N(Cc3ccco3)C(C)=C2C(=O)OC)cc1OC`, the displacement was -11.7%.

Turning to `COc1ccc(CCNC(=O)Nc2cc(F)c(F)cc2Cl)cc1OC`, the displacement came out at 21.5%.

Turning to `Cc1cccc(N2C(=O)S/C(=C\c3ccccc3)C2=O)c1`, the displacement is 12.3%.

`COc1ccc(/C=C2/SC(=Nc3ccccc3Cl)NC2=O)c2ccccc12`: the displacement turned out to be 7%.

Turning to `CCOc1cc(C(=O)NCc2ccccc2OC)cc(OCC)c1OCC`, the displacement came to 15.4%.

For the molecule `CCN(CC)c1ccc(/C=C(\C#N)C(=O)NC)cc1`, the displacement was -6.7%.

On to `CCC(=O)N(CCc1ccccc1)C1CC(=O)N(c2ccc(OC)cc2)C1=O` (configuration not stated), for which the displacement was -9%.
